Experimental data taken from PMC10254187.
These are yes or no findings as the source states them, for the method shown. In cells and extracts the contact can be indirect. Some results given as binding are weak or reduced against the parent protein; the word gives no strength.

The chains behind the UniProt entries cited, without tags or fusion partners. Where a name states a change or a piece, a line headed by the entry shows the natural chain unless it says otherwise. A line that says so, or that is headed by a name, gives the form on record, which may keep a tag or linker. Residues count along the entry.
UniProt Q15717: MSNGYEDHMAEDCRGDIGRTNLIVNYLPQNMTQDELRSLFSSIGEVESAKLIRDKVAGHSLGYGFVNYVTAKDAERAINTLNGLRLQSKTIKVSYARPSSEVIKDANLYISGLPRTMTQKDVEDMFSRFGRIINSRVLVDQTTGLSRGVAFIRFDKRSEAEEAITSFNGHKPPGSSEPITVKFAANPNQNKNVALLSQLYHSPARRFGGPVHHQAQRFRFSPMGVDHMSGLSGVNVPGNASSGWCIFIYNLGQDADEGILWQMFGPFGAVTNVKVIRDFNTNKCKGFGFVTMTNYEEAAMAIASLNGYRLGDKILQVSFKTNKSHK
HA-tagged LOXL2 wild type (Q9Y4K0, residues 26-774): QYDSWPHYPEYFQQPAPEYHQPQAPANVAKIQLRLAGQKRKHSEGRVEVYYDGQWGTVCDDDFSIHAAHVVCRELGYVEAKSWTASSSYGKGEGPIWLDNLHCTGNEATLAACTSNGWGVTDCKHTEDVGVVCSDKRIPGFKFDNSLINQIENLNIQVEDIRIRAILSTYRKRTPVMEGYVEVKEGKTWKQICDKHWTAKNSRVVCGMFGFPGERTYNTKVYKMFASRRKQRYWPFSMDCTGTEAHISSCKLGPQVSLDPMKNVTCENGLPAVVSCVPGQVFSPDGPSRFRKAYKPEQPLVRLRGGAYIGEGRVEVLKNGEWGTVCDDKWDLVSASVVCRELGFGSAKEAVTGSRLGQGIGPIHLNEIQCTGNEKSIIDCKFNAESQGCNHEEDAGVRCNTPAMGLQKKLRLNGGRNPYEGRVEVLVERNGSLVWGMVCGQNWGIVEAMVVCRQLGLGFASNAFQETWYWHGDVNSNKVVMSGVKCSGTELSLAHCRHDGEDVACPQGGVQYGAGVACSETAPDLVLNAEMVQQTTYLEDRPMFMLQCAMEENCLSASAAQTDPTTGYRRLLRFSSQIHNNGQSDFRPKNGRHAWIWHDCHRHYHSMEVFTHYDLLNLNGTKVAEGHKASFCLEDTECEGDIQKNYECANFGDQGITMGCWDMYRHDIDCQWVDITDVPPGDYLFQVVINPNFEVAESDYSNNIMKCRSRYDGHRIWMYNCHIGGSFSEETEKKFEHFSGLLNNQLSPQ
HA-tagged LOXL2 mutant carrying a deletion of the SRCR-1 domain (Q9Y4K0, form named): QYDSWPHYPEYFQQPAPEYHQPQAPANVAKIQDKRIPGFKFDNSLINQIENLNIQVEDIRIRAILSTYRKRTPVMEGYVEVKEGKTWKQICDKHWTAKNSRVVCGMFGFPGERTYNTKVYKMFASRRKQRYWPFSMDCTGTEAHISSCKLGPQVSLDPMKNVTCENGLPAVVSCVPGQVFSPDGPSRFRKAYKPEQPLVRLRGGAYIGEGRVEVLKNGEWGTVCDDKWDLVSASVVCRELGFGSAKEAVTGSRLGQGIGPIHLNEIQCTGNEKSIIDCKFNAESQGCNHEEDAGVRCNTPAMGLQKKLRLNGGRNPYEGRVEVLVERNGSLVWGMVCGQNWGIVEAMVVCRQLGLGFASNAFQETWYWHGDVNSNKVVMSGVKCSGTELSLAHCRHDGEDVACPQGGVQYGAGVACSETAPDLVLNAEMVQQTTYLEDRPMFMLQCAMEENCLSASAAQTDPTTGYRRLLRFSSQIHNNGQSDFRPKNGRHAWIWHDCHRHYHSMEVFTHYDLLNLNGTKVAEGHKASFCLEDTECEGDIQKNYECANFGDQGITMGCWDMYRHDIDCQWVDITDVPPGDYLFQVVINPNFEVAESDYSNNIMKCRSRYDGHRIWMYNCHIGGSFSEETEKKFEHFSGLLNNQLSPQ
UniProt P11021, residues 19-654: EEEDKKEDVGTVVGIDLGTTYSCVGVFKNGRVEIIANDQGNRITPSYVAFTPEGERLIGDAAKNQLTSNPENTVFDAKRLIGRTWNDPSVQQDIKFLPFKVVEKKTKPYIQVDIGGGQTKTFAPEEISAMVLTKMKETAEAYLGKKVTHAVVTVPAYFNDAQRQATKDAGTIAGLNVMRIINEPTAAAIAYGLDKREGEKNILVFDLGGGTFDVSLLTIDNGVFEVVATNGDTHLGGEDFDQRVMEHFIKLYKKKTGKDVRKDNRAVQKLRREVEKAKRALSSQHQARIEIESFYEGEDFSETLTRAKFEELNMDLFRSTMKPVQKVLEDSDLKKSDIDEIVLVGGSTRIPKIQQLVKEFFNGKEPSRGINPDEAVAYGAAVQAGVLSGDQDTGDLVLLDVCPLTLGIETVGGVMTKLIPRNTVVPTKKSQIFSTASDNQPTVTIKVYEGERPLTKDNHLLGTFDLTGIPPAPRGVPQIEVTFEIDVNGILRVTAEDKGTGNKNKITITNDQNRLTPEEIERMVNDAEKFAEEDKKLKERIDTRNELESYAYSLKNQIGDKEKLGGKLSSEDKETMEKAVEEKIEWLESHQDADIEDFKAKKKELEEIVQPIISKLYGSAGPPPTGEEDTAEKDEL

Assays:
[1] = biological target: ELAVL1 (ELAV-like RNA-binding protein 1) (human (endogenous in HEK293T)) (UniProt Q15717); assay: co-IP; whole-cell lysates of HEK293T cells transfected with HA-LOXL2 WT or SRCR-deletion mutants, precipitated with anti-ELAVL1/HuR antibody in IP buffer (50 mM Tris-HCl pH 7.4, 150 mM NaCl, 5 mM EDTA, 1% Triton X-100), overnight at 4 °C; blot with anti-LOXL2
[2] = biological target: HA-tagged LOXL2 mutant carrying a deletion of the SRCR-1 domain (human) (UniProt Q9Y4K0); assay: co-IP; lysates of HEK293T cells transfected with HA-LOXL2 WT or Δ-1, precipitated with anti-HA antibody in IP buffer (50 mM Tris-HCl pH 7.4, 150 mM NaCl, 5 mM EDTA, 1% Triton X-100), overnight at 4 °C; blots for HSPA5, HNRNPC, MATRIN3 and HNRNPM
[3] = biological target: HA-tagged LOXL2 wild type (human) (UniProt Q9Y4K0); assay: as above

binding [1] | binding [2] | binding [3] | Molecule
no binding | – | – | HA-tagged LOXL2 mutant carrying a deletion of the SRCR-1 domain (from UniProt Q9Y4K0 26-774) (enzyme)
binds | – | – | HA-tagged LOXL2 wild type (from UniProt Q9Y4K0 26-774) (enzyme)
– | no binding | binds | HSPA5 (from UniProt P11021 19-654)
– | no binding | binds | MATRIN3 (protein, UniProt P43243 1-847) MSKSFQQSSLSRDSQGHGRDLSAAGIGLLAAATQSLSMPASLGRMNQGTARLASLMNLGMSSSLNQQGAHSALSSASTSSHNLQSIFNIGSRGPLPLSSQHRGDADQASNILASFGLSARDLDELSRYPEDKITPENLPQILLQLKRRRTEEGPTLSYGRDGRSATREPPYRVPRDDWEEKRHFRRDSFDDRGPSLNPVLDYDHGSRSQESGYYDRMDYEDDRLRDGERCRDDSFFGETSHNYHKFDSEYERMGRGPGPLQERSLFEKKRGAPPSSNIEDFHGLLPKGYPHLCSICDLPVHSNKEWSQHINGASHSRRCQLLLEIYPEWNPDNDTGHTMGDPFMLQQSTNPAPGILGPPPPSFHLGGPAVGPRGNLGAGNGNLQGPRHMQKGRVETSRVVHIMDFQRGKNLRYQLLQLVEPFGVISNHLILNKINEAFIEMATTEDAQAAVDYYTTTPALVFGKPVRVHLSQKYKRIKKPEGKPDQKFDQKQELGRVIHLSNLPHSGYSDSAVLKLAEPYGKIKNYILMRMKSQAFIEMETREDAMAMVDHCLKKALWFQGRCVKVDLSEKYKKLVLRIPNRGIDLLKKDKSRKRSYSPDGKESPSDKKSKTDGSQKTESSTEGKEQEEKSGEDGEKDTKDDQTEQEPNMLLESEDELLVDEEEAAALLESGSSVGDETDLANLGDVASDGKKEPSDKAVKKDGSASAAAKKKLKKVDKIEELDQENEAALENGIKNEENTEPGAESSENADDPNKDTSENADGQSDENKDDYTIPDEYRIGPYQPNVPVGIDYVIPKTGFYCKLCSLFYTNEEVAKNTHCSSLPHYQKLKKFLNKLAEERRQKKET
– | no binding | binds | HNRNPM (protein, UniProt P52272 1-730) MAAGVEAAAEVAATEIKMEEESGAPGVPSGNGAPGPKGEGERPAQNEKRKEKNIKRGGNRFEPYANPTKRYRAFITNIPFDVKWQSLKDLVKEKVGEVTYVELLMDAEGKSRGCAVVEFKMEESMKKAAEVLNKHSLSGRPLKVKEDPDGEHARRAMQKVMATTGGMGMGPGGPGMITIPPSILNNPNIPNEIIHALQAGRLGSTVFVANLDYKVGWKKLKEVFSMAGVVVRADILEDKDGKSRGIGTVTFEQSIEAVQAISMFNGQLLFDRPMHVKMDERALPKGDFFPPERPQQLPHGLGGIGMGLGPGGQPIDANHLNKGIGMGNIGPAGMGMEGIGFGINKMGGMEGPFGGGMENMGRFGSGMNMGRINEILSNALKRGEIIAKQGGGGGGGSVPGIERMGPGIDRLGGAGMERMGAGLGHGMDRVGSEIERMGLVMDRMGSVERMGSGIERMGPLGLDHMASSIERMGQTMERIGSGVERMGAGMGFGLERMAAPIDRVGQTIERMGSGVERMGPAIERMGLSMERMVPAGMGAGLERMGPVMDRMATGLERMGANNLERMGLERMGANSLERMGLERMGANSLERMGPAMGPALGAGIERMGLAMGGGGGASFDRAIEMERGNFGGSFAGSFGGAGGHAPGVARKACQIFVRNLPFDFTWKMLKDKFNECGHVLYADIKMENGKSKGCGVVKFESPEVAERACRMMNGMKLSGREIDVRIDRNA
